Source: PubChem BioAssay AID504333 (National Center for Advancing Translational Sciences (NCATS), 2011)
About 16,000 (4.4%) of roughly 360,000 compounds were called active. Inconclusive means that the source gave no clear call. Such entries were picked first, then a sample of the others. Calls follow the shape of the dose curve; as a rule, active = well fitted inhibition curve with a large enough effect; inconclusive = small, poorly fitted or top-dose-only effect; inactive = no such curve, though single readings can be large or run the other way. A potency beside an inconclusive call is a rough fit, not a confirmed value.
% is scaled to controls: 0 for no effect and ±100 for the full control effect; potency is read from the fitted curve at half-maximal effect; tags tell the direction and shape of the fitted curve.
Also: nearly all actives have a fitted effect of over 60% in size.

What follows are molecules tested against Bromodomain adjacent to zinc finger domain protein 2B (Homo sapiens) (UniProt Q9UIF8) (assay: qHTS Assay for Inhibitors of BAZ2B). Conditions: AlphaScreen BAZ2B-H3K14Ac peptide displacement; activity change, negative = inhibition: at 114 µM (top of the series) unless noted.
Chain of UniProt Q9UIF8 (Q9UIF8 whole entry, looked up, the tested form may be a part): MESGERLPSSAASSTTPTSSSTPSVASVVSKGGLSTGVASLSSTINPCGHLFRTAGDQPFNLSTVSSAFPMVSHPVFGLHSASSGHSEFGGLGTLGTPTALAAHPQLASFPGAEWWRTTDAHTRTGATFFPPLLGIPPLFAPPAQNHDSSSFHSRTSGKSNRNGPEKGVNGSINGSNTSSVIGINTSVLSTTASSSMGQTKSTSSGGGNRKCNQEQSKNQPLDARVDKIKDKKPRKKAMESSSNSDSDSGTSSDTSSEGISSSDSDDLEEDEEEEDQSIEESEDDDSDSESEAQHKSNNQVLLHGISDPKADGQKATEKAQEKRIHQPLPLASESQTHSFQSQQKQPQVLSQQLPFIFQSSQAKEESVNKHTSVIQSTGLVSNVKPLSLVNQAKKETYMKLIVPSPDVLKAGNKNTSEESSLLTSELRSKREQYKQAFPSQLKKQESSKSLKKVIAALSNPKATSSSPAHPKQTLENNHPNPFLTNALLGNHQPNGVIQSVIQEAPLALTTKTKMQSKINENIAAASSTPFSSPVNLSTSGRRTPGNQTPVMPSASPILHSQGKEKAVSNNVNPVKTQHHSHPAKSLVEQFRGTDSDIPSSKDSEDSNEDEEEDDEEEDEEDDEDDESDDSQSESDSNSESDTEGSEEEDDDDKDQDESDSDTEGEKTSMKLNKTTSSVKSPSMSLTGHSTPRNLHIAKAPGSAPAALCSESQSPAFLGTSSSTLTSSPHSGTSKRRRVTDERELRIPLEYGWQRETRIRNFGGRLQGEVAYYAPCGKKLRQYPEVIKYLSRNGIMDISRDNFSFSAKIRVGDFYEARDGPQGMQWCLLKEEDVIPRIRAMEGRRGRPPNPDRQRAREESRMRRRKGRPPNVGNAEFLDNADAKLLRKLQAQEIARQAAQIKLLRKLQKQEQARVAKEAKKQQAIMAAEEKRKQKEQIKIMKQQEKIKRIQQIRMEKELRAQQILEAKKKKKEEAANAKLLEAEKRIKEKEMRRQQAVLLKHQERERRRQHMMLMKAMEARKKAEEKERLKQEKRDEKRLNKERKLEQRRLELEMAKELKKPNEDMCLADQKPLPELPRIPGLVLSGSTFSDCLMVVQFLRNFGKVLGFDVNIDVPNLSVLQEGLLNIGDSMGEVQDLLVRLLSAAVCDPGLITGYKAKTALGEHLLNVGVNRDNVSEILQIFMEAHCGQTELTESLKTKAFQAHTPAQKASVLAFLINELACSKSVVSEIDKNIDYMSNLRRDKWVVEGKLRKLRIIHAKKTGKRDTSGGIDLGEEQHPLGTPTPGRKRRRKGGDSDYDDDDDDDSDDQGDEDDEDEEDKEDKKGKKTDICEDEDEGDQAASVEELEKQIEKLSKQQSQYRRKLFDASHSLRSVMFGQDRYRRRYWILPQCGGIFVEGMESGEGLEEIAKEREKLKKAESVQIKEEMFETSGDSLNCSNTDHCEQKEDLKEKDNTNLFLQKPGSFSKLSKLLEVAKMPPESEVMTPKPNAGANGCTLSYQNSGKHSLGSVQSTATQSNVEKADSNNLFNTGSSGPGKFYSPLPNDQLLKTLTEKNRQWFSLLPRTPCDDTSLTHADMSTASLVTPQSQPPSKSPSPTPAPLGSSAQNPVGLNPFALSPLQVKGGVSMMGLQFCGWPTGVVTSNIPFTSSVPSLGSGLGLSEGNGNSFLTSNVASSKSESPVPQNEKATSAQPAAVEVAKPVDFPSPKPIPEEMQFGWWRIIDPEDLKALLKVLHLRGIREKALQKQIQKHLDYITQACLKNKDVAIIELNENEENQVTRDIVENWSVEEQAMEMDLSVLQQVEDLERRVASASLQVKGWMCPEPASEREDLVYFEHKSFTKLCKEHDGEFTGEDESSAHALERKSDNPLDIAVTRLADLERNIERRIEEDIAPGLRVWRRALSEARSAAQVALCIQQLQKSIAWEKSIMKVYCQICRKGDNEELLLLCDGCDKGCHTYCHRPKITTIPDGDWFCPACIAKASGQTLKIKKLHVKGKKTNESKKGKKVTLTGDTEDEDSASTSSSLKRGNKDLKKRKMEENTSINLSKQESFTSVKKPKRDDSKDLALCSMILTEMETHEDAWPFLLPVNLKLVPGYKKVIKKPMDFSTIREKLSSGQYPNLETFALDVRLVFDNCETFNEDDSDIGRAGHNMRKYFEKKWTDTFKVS
In short: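 Complex of BAZ2B and biotin-H3K14Ac (50 nM apiece) forms over 30 min at RT, then faces library compounds up to 110 uM for another 30 min; AlphaScreen beads added, 20 min dark incubation, luminescence read.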
For `CC(=O)Nc1ccc(Nc2c3ccccc3nc3ccccc23)cc1`, the Potency was inconclusive: 56.2 µM [inhibitor, partial curve].
For `CCOC(=O)CCC(NC(=O)c1cncc(O)c1)C(=O)OCC` (stereo unspecified), the Potency was inconclusive: 89.1 µM [inhibitor, single point].
For `Cc1nc(SCC(=O)Nc2ccc(OCc3ccccc3)cc2)n[nH]1`, the “activity change, negative = inhibition” value was inactive: 21.9%.
In the case of `O=[N+]([O-])c1ccc(NCCc2ccccc2)c(Br)c1`, the Potency is reported as inconclusive: 89.1 µM [inhibitor, single point].
With `Brc1ccc(-c2cn3c(n2)SCC3)cc1` the Potency was inconclusive: 70.8 µM [inhibitor, single point].
In the case of `CCCNC(=O)c1ccccc1NC(=O)c1ccccc1SC`, the “activity change, negative = inhibition” value is reported as inactive: -25.9%.
For `Cc1c(Cc2ccccc2)sc(/N=C/c2c(O)ccc3ccccc23)c1C(N)=O`, the Potency was inconclusive: 79.4 µM [inhibitor, single point].
For `CC(=O)NC(NC(=S)Nc1ccc(N=Nc2ccccc2)cc1)C(Cl)(Cl)Cl` (stereo unspecified), the Potency was inconclusive: 35.5 µM [inhibitor, partial curve, poor fit].
`CC(=O)c1cccc(NC(=S)N2CCC(Cc3ccccc3)CC2)c1` was tested, and the Potency was inconclusive: 50.1 µM [inhibitor, partial curve].
With `Cc1ccc(S(=O)(=O)Cc2cc(-c3ccc(Cl)cc3)no2)cc1` the Potency was inconclusive: 89.1 µM [inhibitor, single point].
For `CC(=O)Oc1ccc(C(=O)O)cc1OC(C)=O`, the Potency was inconclusive: 100 µM [inhibitor, partial curve].
For `C=CCn1c(-c2ccccc2OC)n[nH]c1=S`, the “activity change, negative = inhibition” value was inactive: -9.47%.
In the case of `S=C1NC2(CCCCC2)Cc2ccccc21`, the Potency is reported as inconclusive: 22.4 µM [inhibitor, partial curve].
In the case of `N#Cc1ccc2c(c1)C[C@]1(c3ccsc3)Oc3c(c(=O)oc4ccccc34)C2O1`, the Potency is reported as active: 12.6 µM.
With `COc1ccccc1CNc1ncnc2c1c(-c1ccccc1)cn2-c1ccc(Br)cc1` the “activity change, negative = inhibition” value was inactive: -23.5%.
`CN1CCN(CCCNC(=O)c2ccc(/C=C3/Sc4ccccc4N(Cc4cccc(Cl)c4)C3=O)cc2)CC1` was tested, and the Potency was inconclusive: 56.2 µM [inhibitor, partial curve, poor fit].
`COc1ccc(-c2ccc(-c3nc4ccc(C)cn4c3NC3CCCCC3)cc2OC)cc1` was tested, and the Potency was active: 44.7 µM.
For `CCCCn1c(N)c(N(CC)C(=O)c2ccc(Cl)c(Cl)c2)c(=O)[nH]c1=O`, the “activity change, negative = inhibition” value was inactive: 3.74%.
With `CC(CC(=O)Nc1ccccc1)NCCCN1CCCC1=O` (stereo unspecified) the Potency was active: 50.1 µM.
With `Cc1ccc2c(c1)C(c1ccc(O)cc1)(c1ccc(O)cc1)C(=O)N2C` the Potency was inconclusive: 79.4 µM [inhibitor, single point].
With `NNc1cc([N+](=O)[O-])cc2c1C(=O)N(Cc1ccccc1)S2=O` (stereo unspecified) the Potency was inconclusive: 50.1 µM [inhibitor, partial curve].
For `COC(=O)c1cc(S(=O)(=O)N2CCN(c3cc(Cl)ccc3C)CC2)c[nH]1`, the “activity change, negative = inhibition” value was inactive: -34.9%.
With `Cc1ccc(C2(O)CN(c3ccccc3)C3=[N+]2CCS3)cc1` (stereo unspecified) the Potency was inconclusive: 79.4 µM [inhibitor, single point].
With `Cc1ccc(CNC(=O)Cn2cc3c(n2)-c2c(oc(C(=O)N4CCOCC4)c2C)CC3)cc1` the Potency was inconclusive: 70.8 µM [inhibitor, single point].
`COc1ccc(NS(=O)(=O)c2ccc(Cl)c(C(=O)O)c2)cc1S(=O)(=O)N1CCCCC1` was tested, and the “activity change, negative = inhibition” value was inactive: -17.8%.
In the case of `Cc1cc(C)c2oc(C(=O)Nc3c(C(=O)c4ccccc4)oc4ccccc34)cc(=O)c2c1`, the “activity change, negative = inhibition” value is reported as inactive: -22.4%.
With `COc1ccccc1CCNCc1ccc(OC)c(OCc2ccccc2)c1` the Potency was inconclusive: 89.1 µM [inhibitor, single point].
`Cc1c(C(=O)N2CCN(C/C=C/c3ccccc3)CC2)oc2c(F)cccc12` was tested, and the Potency was inconclusive: 56.2 µM [inhibitor, partial curve].
For `CCOc1cc(/C=C2/C(=N)N3N=C(CC)SC3=NC2=O)ccc1OC(=O)c1ccco1`, the “activity change, negative = inhibition” value was inactive: -16.9%.
With `Cc1c(-c2ccc(Cl)cc2)oc(=O)c2c(N)n(-c3ccccc3)nc12` the Potency was active: 50.1 µM.
With `CC(C)NC(=O)CCS(=O)(=O)c1ccc(Br)s1` the Potency was inconclusive: 89.1 µM [inhibitor, single point].
With `O=C(CCn1nnc2ccccc21)Nc1nnc(COc2ccccc2F)s1` the Potency was inconclusive: 89.1 µM [inhibitor, single point].
In the case of `CCN(CC)CCC(c1ccc(N(C)C)cc1)c1c(OC)cc(OC)c2ccc(=O)oc12` (stereo unspecified), the Potency is reported as active: 39.8 µM.
`Cc1ccc(CNC(=O)Cn2cnc(S(=O)(=O)N3CCC(C)CC3)c2)o1` was tested, and the Potency was inconclusive: 79.4 µM [inhibitor, single point].
In the case of `O=C(CN1C(=O)/C(=C\c2cccs2)SC1=S)Nc1cccc(C(=O)O)c1`, the Potency is reported as inconclusive: 44.7 µM [inhibitor, partial curve].
With `NNC(=O)c1nnn(-c2nonc2N)c1CN1CCCC1` the Potency was inconclusive: 79.4 µM [inhibitor, single point].
For `O=C(COc1ccc(Cl)cc1Cl)Nc1ccccc1NS(=O)(=O)c1cccs1`, the Potency was inconclusive: 89.1 µM [inhibitor, single point].
`CCOC(=O)C1=C(C)N=C2c3ccccc3C(=O)C2C1c1ccc(Br)cc1` (stereo unspecified) was tested, and the Potency was active: 22.4 µM.
`CCc1nc2scc(-c3cccs3)c2c(=O)o1` was tested, and the Potency was inconclusive: 89.1 µM [inhibitor, single point].
In the case of `CC(=O)C1=C(O)C(=O)N(c2ccccn2)C1c1ccccc1[N+](=O)[O-]` (stereo unspecified), the Potency is reported as inconclusive: 79.4 µM [inhibitor, single point].
With `CC(C)c1nnc(NC(=O)c2cnccn2)s1` the Potency was active: 39.8 µM.
`CC(=O)c1cccc(NC(=O)C(C)OC(=O)Cc2c[nH]c3ccccc23)c1` (stereo unspecified) was tested, and the “activity change, negative = inhibition” value was inactive: -3.81%.
For `N#Cc1c(SCC(=O)Nc2nc3ccc(Br)cc3s2)sc2c(O)cc(=O)[nH]c12`, the Potency was active: 20 µM.
For `Brc1cccc(OCCCN2CCCCCC2)c1`, the Potency was active: 50.1 µM.
`COc1ccc(/C(N)=N/OC(=O)c2ccco2)cc1` was tested, and the “activity change, negative = inhibition” value was inactive: 6.73%.
For `Cc1ccc(OCC(=O)Nc2ccc(-c3nnc(-c4ccco4)o3)cc2)cc1`, the Potency was inconclusive: 100 µM [inhibitor, single point].
